Laboratory results taken from PubChem BioAssay AID2147 (National Center for Advancing Translational Sciences (NCATS), 2009).
The campaign covered roughly 230,000 compounds. About 3,600 (1.6%) were called active. Inconclusive means that the source gave no clear call. Such entries were picked first, then a sample of the others. Calls come from the whole dose curve; as a rule, active = well fitted inhibition curve with a large enough effect (not every such curve was filed as active); inconclusive = small, poorly fitted or top-dose-only effect, or another doubt; inactive = no such curve, though single readings can be large or run the other way. Potencies beside an inconclusive call are fits to weak or partial responses and may not hold up.

Molecular target: Lysine-specific demethylase 4E (Homo sapiens) (UniProt B2RXH2)
Chain of UniProt B2RXH2 (B2RXH2 whole entry, looked up, the tested form may be a part): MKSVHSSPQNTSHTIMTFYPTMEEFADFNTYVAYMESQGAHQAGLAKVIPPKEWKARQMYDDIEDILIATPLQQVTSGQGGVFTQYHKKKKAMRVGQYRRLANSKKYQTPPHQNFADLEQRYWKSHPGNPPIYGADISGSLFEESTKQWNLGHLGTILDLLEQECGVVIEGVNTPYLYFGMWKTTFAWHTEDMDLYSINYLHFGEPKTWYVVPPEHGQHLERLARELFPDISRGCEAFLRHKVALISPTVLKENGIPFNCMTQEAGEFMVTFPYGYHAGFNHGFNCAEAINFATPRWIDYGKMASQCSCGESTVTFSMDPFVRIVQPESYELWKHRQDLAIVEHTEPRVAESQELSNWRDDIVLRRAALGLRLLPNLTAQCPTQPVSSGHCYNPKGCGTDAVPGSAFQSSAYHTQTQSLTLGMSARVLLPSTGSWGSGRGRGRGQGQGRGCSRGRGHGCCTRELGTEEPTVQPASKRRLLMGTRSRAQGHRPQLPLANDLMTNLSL
Experiment: qHTS Assay for Inhibitors of Human Jumonji Domain Containing 2E (JMJD2E)
Conditions: JMJD2E catalytic domain, FDH-coupled NADH fluorescence (FDH is formaldehyde dehydrogenase); series mostly up to 57.1 µM
Note: nearly all actives have a fitted effect of over 50% in size.
Potency is the fitted concentration of half-maximal effect; tags give direction and shape of the fitted curve.

Row | Compound | Potency
1 | O=C(Nc1ccc(Oc2ccc3c(c2)C(=O)N(c2ccc(O)cc2)C3=O)cc1)c1cccs1 | inactive
2 | COCCCNC(=O)c1cc(=O)n(Cc2ccc(Cl)cc2)c2ccccc12 | inconclusive: 28.2 µM [inhibitor, partial curve]
3 | CCN(CC)CCCN(Cc1cc2cc(OC)ccc2[nH]c1=O)C(=O)Nc1ccccc1 | inconclusive: 31.6 µM [inhibitor, partial curve]
4 | C[C@@H]1Nc2ccc(Cl)cc2S(=O)(=O)N1 | inconclusive: 31.6 µM [inhibitor, partial curve]
5 | O=C(COC(=O)c1cc(-c2ccco2)nc2ccccc12)NCc1ccccc1 | inconclusive: 22.4 µM [inhibitor, partial curve]
6 | N#Cc1ccsc1NC(=O)c1ccccn1 | inconclusive: 31.6 µM [inhibitor, single point]
7 | CC1CC(C)CN(CC(=O)N2CCCc3c2c(=O)oc2ccc(OCc4ccccc4)cc32)C1 (stereo unspecified) | inconclusive: 39.8 µM [inhibitor, single point]
8 | O=c1cc(CN2CCCc3ccccc32)nc2sccn12 | inconclusive: 25.1 µM [inhibitor, single point]
9 | Cc1ccc(S(=O)(=O)ON2C(=O)c3ccccc3C2=O)c(C)c1 | inconclusive: 28.2 µM [inhibitor, partial curve]
10 | CC(C)(C)c1ccc(COn2ccnc2)cc1 | inactive
11 | Cc1c(O)ccc2c(CN3CCN(CCO)CC3)cc(=O)oc12 | inconclusive: 28.2 µM [inhibitor, partial curve]
12 | COc1ccc(C(=O)c2cc(C(C)=O)c(Nc3ccccc3)s2)cc1 | inconclusive: 25.1 µM [inhibitor, partial curve]
13 | CCCc1[nH]nc2c1C(c1ccncc1)C(C#N)=C(N)O2 (stereo unspecified) | inactive
14 | COc1ccc2oc(-c3ccco3)cc(=O)c2c1 | inconclusive: 22.4 µM [inhibitor, partial curve]
15 | Cc1ccc(C)n1-c1ccc(C(=O)N2CCOCC2)cc1 | inconclusive: 28.2 µM [inhibitor, single point]
16 | CCCn1c(-c2cc(OC)c(OC)c(OC)c2)nc2nc3ccccc3nc21 | inconclusive: 28.2 µM [inhibitor, single point]
17 | COc1ccc(NC(=O)C2C3C=CC(C3)C2C(=O)NCc2ccco2)c(OC)c1 (stereo unspecified) | inactive
18 | C=CCS(=O)(=O)c1nc2ccccc2s1 | inactive
19 | CCOc1cc2oc(=O)c3c(c2cc1Cl)CCC3 | inconclusive: 3.98 µM [inhibitor, partial curve]
20 | CC(C)CSc1n[nH]c(=S)s1 | active: 10 µM
21 | Cc1ccc2c(Cl)cc(Cl)c(OCC(=O)NC3CCS(=O)(=O)C3)c2n1 (stereo unspecified) | inconclusive: 28.2 µM [inhibitor, partial curve]
22 | CCn1c(CNC(=O)c2cccs2)n[nH]c1=S | inconclusive: 39.8 µM [inhibitor, single point]
23 | CCOC(=O)c1cnc2ccc(OC)cc2c1NCc1ccccc1 | inconclusive: 31.6 µM [inhibitor, partial curve]

Row | Compound | Potency
24 | COc1ccc(NC(=O)COc2ccc(/C=N/NC(=O)c3cccnc3)cc2OC)cc1 | inconclusive: 35.5 µM [inhibitor, single point]
25 | N#Cc1cc2c(=O)n3ccccc3nc2n(-c2ccccc2Cl)c1=O | inconclusive: 28.2 µM [inhibitor, partial curve]
26 | Cc1ccc(S(=O)(=O)N2CCCCC2)cc1C(=O)N1CCN(c2ccccn2)CC1 | inconclusive: 25.1 µM [inhibitor, single point]
27 | Cc1ccc2c(c1)C1(C)C(C(C)(C)N2C=O)C1(Cl)Cl (stereo unspecified) | inactive
28 | Cc1cc(C(=O)N/N=C/c2ccc3c(c2)OCO3)c(C)o1 | inconclusive: 39.8 µM [inhibitor, single point]
29 | CC(CS(=O)(=O)c1cccc2cccnc12)N1CCCCC1 (stereo unspecified) | inactive
30 | COc1ccc2oc(C(=O)c3ccccc3)c(N)c2c1 | inconclusive: 39.8 µM [inhibitor, single point]
31 | CCS(=O)(=O)c1cc([N+](=O)[O-])c(Sc2ccccc2N)s1 | inconclusive: 25.1 µM [inhibitor, single point]
32 | CCOC(=O)N1CCN(C(=O)c2cn(CCOC)c(=O)c3c2c2ccccc2n3C)CC1 | inconclusive: 31.6 µM [inhibitor, partial curve]
33 | CCOC(=O)C1CCN(C(=O)c2cn(C)c(=O)c3cc(OC)c(OC)cc23)CC1 | inconclusive: 25.1 µM [inhibitor, single point]
34 | FC(F)Sc1nc2ccccc2[nH]1 | inactive
35 | Cc1ccc(OCC(=O)N/N=C\c2c(C)[nH]n(-c3ccccc3)c2=O)c([N+](=O)[O-])c1 | inconclusive: 31.6 µM [inhibitor, single point]
36 | Oc1ccc(/C=N/NC2=NCCCCC2)cc1 | inactive
37 | COC(=O)c1cccc2c1-c1ccccc1/C2=N/O | inactive
38 | CCc1ccc(-c2cc(C(=O)NN3CCOCC3)c3ccccc3n2)cc1 | inconclusive: 25.1 µM [inhibitor, single point]
39 | Cc1ccc(-n2nnnc2SCC(=O)Nc2ccccc2N2CCCCC2)cc1C | inactive
40 | O=C(NC1CCCCC1)c1ccc(CNc2nc(=S)[nH]c3ccccc23)cc1 | inactive
41 | CCOc1cc(NC(=O)c2ccco2)c(OCC)cc1NC(=O)Cc1ccc(OC)c(OC)c1 | inconclusive: 35.5 µM [inhibitor, single point]
42 | O=C(Cn1cnc2sc(-c3ccccc3)cc2c1=O)NCc1ccco1 | inconclusive: 39.8 µM [inhibitor, single point]
43 | Cc1nc(-c2cccc3ccccc23)ccc1C(=O)O | inconclusive: 28.2 µM [inhibitor, partial curve]
44 | Cc1nc2c(C(=O)NCCc3ccccc3Cl)c[nH]n2c(=O)c1Cl | inconclusive: 39.8 µM [inhibitor, single point]
45 | CCc1nnc(NC(=O)c2cccc(NC(=O)C(C)C)c2)s1 | inconclusive: 28.2 µM [inhibitor, single point]
46 | COc1cc(/C=C/C(=O)N2C(=O)c3cccc(N)c3C2=O)cc(OC)c1OC | inconclusive: 22.4 µM [inhibitor, partial curve]
